Reference: the supplement of paper PMC4604168 (melanoma cell lines)
The other results are listed elsewhere or left out. Many values rest on one well or one pass, so single values are uncertain.

How the values were obtained:
Assay in all cases: cell count relative to DMSO control; melanoma cells; higher = more viable cells
Details in all cases: library dose: standard library concentration; 72 h
SkMel28 = test system: SkMel28
SkMel2 = test system: SkMel2
SkMel30 = test system: SkMel30
SkMel5 = test system: SkMel5
UACC257 = test system: UACC257
UACC62 = test system: UACC62
WM115 = test system: WM115
WM1716 = test system: WM1716
WM1745 = test system: WM1745
WM3526 = test system: WM3526
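Note: cells treated in 1,536-well plates, then fixed and DAPI-stained, with nuclei counted from automated high-throughput microscope images.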

C[C@]1(O)C[C@@H](c2nc(-c3ccc4ccc(-c5ccccc5)nc4c3)c3c(N)nccn32)C1 + CC1(C)NC(=O)N(c2ccc([N+](=O)[O-])c(C(F)(F)F)c2)C1=O [nilutamide] (first compound 2 µM, partner dose 5 µM)
cell count (SkMel28): 83.8%
cell count (SkMel2): 81.7%
cell count (SkMel30): 88.9%
cell count (SkMel5): 57.4%
cell count (UACC257): 87.3%
cell count (UACC62): 102%
cell count (WM115): 107%
cell count (WM1716): 118%
cell count (WM1745): 101%
cell count (WM3526): 75%

COc1cc([C@@H]2c3cc4c(cc3[C@@H](O[C@@H]3O[C@@H]5CO[C@@H](C)O[C@H]5[C@H](O)[C@H]3O)[C@H]3COC(=O)[C@H]23)OCO4)cc(OC)c1O [etoposide] + C=CCn1c(=O)c2cnc(Nc3ccc(N4CCN(C)CC4)cc3)nc2n1-c1cccc(C(C)(C)O)n1 [MK1775] (first compound 0.1 µM, partner dose 0.1 µM)
cell count (SkMel28): 41.1%
cell count (SkMel2): 61.4%
cell count (SkMel30): 81.2%
cell count (SkMel5): 54.9%
cell count (UACC257): 97.8%
cell count (UACC62): 75.5%
cell count (WM115): 54.5%
cell count (WM1716): 54.5%
cell count (WM1745): 47.6%
cell count (WM3526): 74.4%

C[C@]1(O)C[C@@H](c2nc(-c3ccc4ccc(-c5ccccc5)nc4c3)c3c(N)nccn32)C1 + COc1cc2ncnc(Nc3ccc(Oc4ccccc4)cc3)c2cc1OC [SrcI1] (first compound 2 µM, partner dose 10 µM)
cell count (SkMel28): 65.7%
cell count (SkMel2): 80.5%
cell count (SkMel30): 88.9%
cell count (SkMel5): 57.4%
cell count (UACC257): 73.7%
cell count (UACC62): 55.6%
cell count (WM115): 78.4%
cell count (WM1716): 78.2%
cell count (WM3526): 54.6%

COc1cc([C@@H]2c3cc4c(cc3[C@@H](O[C@@H]3O[C@@H]5CO[C@@H](C)O[C@H]5[C@H](O)[C@H]3O)[C@H]3COC(=O)[C@H]23)OCO4)cc(OC)c1O [etoposide] + NC1(c2ccc(-c3nc4ccn5c(=O)[nH]nc5c4cc3-c3ccccc3)cc2)CCC1 [MK2206] (first compound 0.1 µM, partner dose 2 µM)
cell count (SkMel28): 42.6%
cell count (SkMel2): 49.5%
cell count (SkMel30): 77.2%
cell count (SkMel5): 55%
cell count (UACC257): 77.2%
cell count (UACC62): 114%
cell count (WM115): 55.1%
cell count (WM1716): 60.2%
cell count (WM1745): 73.2%
cell count (WM3526): 51.4%

CCN(CC)CCNC(=O)c1c(C)[nH]c(/C=C2\C(=O)Nc3ccc(F)cc32)c1C [sunitinib] + O=C(CCCCCCC(=O)Nc1ccccc1)NO [vorinostat] (first compound 2 µM, partner dose 0.4 µM)
cell count (SkMel28): 42.9%
cell count (SkMel2): 56.4%
cell count (SkMel30): 60.7%
cell count (SkMel5): 55.5%
cell count (UACC257): 75.5%
cell count (UACC62): 66.7%
cell count (WM115): 59.4%
cell count (WM1716): 111%
cell count (WM1745): 33%
cell count (WM3526): 54.9%

COc1cc([C@@H]2c3cc4c(cc3[C@@H](O[C@@H]3O[C@@H]5CO[C@@H](C)O[C@H]5[C@H](O)[C@H]3O)[C@H]3COC(=O)[C@H]23)OCO4)cc(OC)c1O [etoposide] + O=c1[nH]nc(Sc2ncc([N+](=O)[O-])s2)n1-c1ccc2c(c1)OCCO2 [BI78D3] (first compound 0.1 µM, partner dose 1 µM)
cell count (SkMel28): 55.3%
cell count (SkMel2): 61.2%
cell count (SkMel30): 90.7%
cell count (SkMel5): 69.4%
cell count (UACC257): 96.3%
cell count (UACC62): 59.5%
cell count (WM115): 72.8%
cell count (WM1716): 64.7%
cell count (WM1745): 70.8%
cell count (WM3526): 73%

Cn1cnc2c(F)c(Nc3ccc(Br)cc3Cl)c(C(=O)NOCCO)cc21 [selumetinib] + COc1ccc2c(c1)CCC1C2CCC2(C)C(NCCCCCCN3C(=O)C=CC3=O)CCC12 [U73122] (first compound 0.075 µM, partner dose 2 µM)
cell count (SkMel28): 67%
cell count (SkMel2): 66.5%
cell count (SkMel30): 60.6%
cell count (SkMel5): 67.8%
cell count (UACC257): 80.7%
cell count (UACC62): 37%
cell count (WM115): 67.9%
cell count (WM1716): 81.5%
cell count (WM3526): 53%

CCN(CC)CCNC(=O)c1c(C)[nH]c(/C=C2\C(=O)Nc3ccc(F)cc32)c1C [sunitinib] + COCC[n+]1c2c(n(Cc3cnccn3)c1C)C(=O)c1ccccc1C2=O [YM155] (first compound 2 µM, partner dose 0.002 µM)
cell count (SkMel28): 54%
cell count (SkMel2): 49.2%
cell count (SkMel30): 66.4%
cell count (SkMel5): 42.3%
cell count (UACC257): 31.5%
cell count (UACC62): 62.1%
cell count (WM115): 46.9%
cell count (WM1716): 75.9%
cell count (WM1745): 59.2%
cell count (WM3526): 50.6%

COc1cc([C@@H]2c3cc4c(cc3[C@@H](O[C@@H]3O[C@@H]5CO[C@@H](C)O[C@H]5[C@H](O)[C@H]3O)[C@H]3COC(=O)[C@H]23)OCO4)cc(OC)c1O [etoposide] + CC(C)CCN1c2nc(Nc3cc(F)c(O)c(F)c3)ncc2N(C)C(=O)C1C [BID1870] (first compound 0.1 µM, partner dose 1 µM)
cell count (SkMel28): 36.7%
cell count (SkMel2): 47.6%
cell count (SkMel30): 74.1%
cell count (SkMel5): 59.6%
cell count (UACC257): 75.7%
cell count (UACC62): 63.6%
cell count (WM115): 74.1%
cell count (WM1716): 59%
cell count (WM3526): 67.1%

CCN(CC)CCNC(=O)c1c(C)[nH]c(/C=C2\C(=O)Nc3ccc(F)cc32)c1C [sunitinib] + COc1cc2c(Oc3ccc4[nH]c(C)cc4c3F)ncnc2cc1OCCCN1CCCC1 [cediranib] (first compound 2 µM, partner dose 2 µM)
cell count (SkMel28): 35%
cell count (SkMel2): 47.8%
cell count (SkMel30): 45.4%
cell count (SkMel5): 37.2%
cell count (UACC257): 88.5%
cell count (UACC62): 42%
cell count (WM115): 53.8%
cell count (WM1716): 77.5%
cell count (WM1745): 42.6%
cell count (WM3526): 46.9%

C[C@]1(O)C[C@@H](c2nc(-c3ccc4ccc(-c5ccccc5)nc4c3)c3c(N)nccn32)C1 + CC(=O)c1c(C)c2cnc(Nc3ccc(N4CCNCC4)cn3)nc2n(C2CCCC2)c1=O [palbociclib] (first compound 2 µM, partner dose 0.2 µM)
cell count (SkMel28): 59%
cell count (SkMel2): 73.9%
cell count (SkMel30): 74.7%
cell count (SkMel5): 56.4%
cell count (UACC257): 87.9%
cell count (UACC62): 53.6%
cell count (WM115): 70.4%
cell count (WM1716): 46.6%
cell count (WM1745): 59.9%
cell count (WM3526): 62.9%

COc1cc([C@@H]2c3cc4c(cc3[C@@H](O[C@@H]3O[C@@H]5CO[C@@H](C)O[C@H]5[C@H](O)[C@H]3O)[C@H]3COC(=O)[C@H]23)OCO4)cc(OC)c1O [etoposide] + O=C(O)C(=O)Nc1sc2c(c1C(=O)O)CCNC2 [TCS401] (first compound 0.1 µM, partner dose 8.33333 µM)
cell count (SkMel28): 50.1%
cell count (SkMel2): 55.8%
cell count (SkMel30): 84.4%
cell count (SkMel5): 66.6%
cell count (UACC257): 78.2%
cell count (UACC62): 76.7%
cell count (WM115): 64.1%
cell count (WM1716): 53.4%
cell count (WM3526): 77.3%

CCN(CC)CCNC(=O)c1c(C)[nH]c(/C=C2\C(=O)Nc3ccc(F)cc32)c1C [sunitinib] + Cn1nnc2c(C(N)=O)ncn2c1=O [temozolomide] (first compound 2 µM, partner dose 10 µM)
cell count (SkMel28): 28.6%
cell count (SkMel2): 55.9%
cell count (SkMel30): 48.9%
cell count (SkMel5): 52%
cell count (UACC257): 91.5%
cell count (UACC62): 29.8%
cell count (WM115): 60.3%
cell count (WM1716): 56%
cell count (WM1745): 39.4%
cell count (WM3526): 41.9%

COc1cc([C@@H]2c3cc4c(cc3[C@@H](O[C@@H]3O[C@@H]5CO[C@@H](C)O[C@H]5[C@H](O)[C@H]3O)[C@H]3COC(=O)[C@H]23)OCO4)cc(OC)c1O [etoposide] + CC1(C)NC(=O)N(c2ccc([N+](=O)[O-])c(C(F)(F)F)c2)C1=O [nilutamide] (first compound 0.1 µM, partner dose 5 µM)
cell count (SkMel28): 71.7%
cell count (SkMel2): 78.5%
cell count (SkMel30): 90.9%
cell count (SkMel5): 78.9%
cell count (UACC257): 92.2%
cell count (UACC62): 65.5%
cell count (WM115): 60.5%
cell count (WM1716): 63.3%
cell count (WM1745): 84%
cell count (WM3526): 98.1%

CCN(CC)CCNC(=O)c1c(C)[nH]c(/C=C2\C(=O)Nc3ccc(F)cc32)c1C [sunitinib] + c1cc(-c2cnn3cc(-c4ccc(OCCN5CCCCC5)cc4)cnc23)ccn1 [Dorsomorphin] (first compound 2 µM, partner dose 2 µM)
cell count (SkMel28): 65.5%
cell count (SkMel2): 65%
cell count (SkMel30): 75.7%
cell count (SkMel5): 49.6%
cell count (UACC257): 96.8%
cell count (UACC62): 53.7%
cell count (WM115): 50.8%
cell count (WM1716): 71.1%
cell count (WM3526): 46.9%

CCN(CC)CCNC(=O)c1c(C)[nH]c(/C=C2\C(=O)Nc3ccc(F)cc32)c1C [sunitinib] + Nc1cccc2c1CN(C1CCC(=O)NC1=O)C2=O [lenalidomide] (first compound 2 µM, partner dose 5 µM)
cell count (SkMel28): 63.1%
cell count (SkMel2): 59%
cell count (SkMel30): 70.2%
cell count (SkMel5): 54%
cell count (UACC257): 74.4%
cell count (UACC62): 31.5%
cell count (WM115): 66.5%
cell count (WM1716): 89.8%
cell count (WM1745): 48.1%
cell count (WM3526): 52.5%

C[C@]1(O)C[C@@H](c2nc(-c3ccc4ccc(-c5ccccc5)nc4c3)c3c(N)nccn32)C1 + O=C(O)C(=O)Nc1sc2c(c1C(=O)O)CCNC2 [TCS401] (first compound 2 µM, partner dose 8.33333 µM)
cell count (SkMel28): 78.3%
cell count (SkMel2): 81.4%
cell count (SkMel30): 84.1%
cell count (SkMel5): 70.1%
cell count (UACC257): 80.8%
cell count (UACC62): 74.6%
cell count (WM115): 110%
cell count (WM1716): 87.3%
cell count (WM3526): 63%

COc1cc([C@@H]2c3cc4c(cc3[C@@H](O[C@@H]3O[C@@H]5CO[C@@H](C)O[C@H]5[C@H](O)[C@H]3O)[C@H]3COC(=O)[C@H]23)OCO4)cc(OC)c1O [etoposide] + CCCCCCCCc1ccc(CCC(N)(CO)CO)cc1 [fingolimod] (first compound 0.1 µM, partner dose 10 µM)
cell count (SkMel28): 1.16%
cell count (SkMel2): 0.4%
cell count (SkMel30): 8.49%
cell count (SkMel5): 53.5%
cell count (UACC257): 68.7%
cell count (UACC62): 13%
cell count (WM115): 8.75%
cell count (WM1716): 44.6%
cell count (WM1745): 14.1%
cell count (WM3526): 37.1%

COc1cc([C@@H]2c3cc4c(cc3[C@@H](O[C@@H]3O[C@@H]5CO[C@@H](C)O[C@H]5[C@H](O)[C@H]3O)[C@H]3COC(=O)[C@H]23)OCO4)cc(OC)c1O [etoposide] + Oc1nc(-c2ccc(C(F)(F)F)cc2)nc2c1CSCC2 [XAV939] (first compound 0.1 µM, partner dose 10 µM)
cell count (SkMel28): 47.4%
cell count (SkMel2): 58.5%
cell count (SkMel30): 94.6%
cell count (SkMel5): 64.4%
cell count (UACC257): 69.6%
cell count (UACC62): 67.5%
cell count (WM115): 67.4%
cell count (WM1716): 40.6%
cell count (WM3526): 97.9%
